# Assay results published in the supplement of paper PMC11417369.
# ± gives the standard deviation of the averaged measurements. This is one part of the list.
# Tested on: PfAP2-G AP2 domain (GST-tagged)
# Test: gcPBM binding intensity (ln(normalized median fluorescence intensity)); higher = stronger DNA binding
# Summary of the method: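 An Agilent 4 × 180k array carrying primer-extended double-stranded 36-bp intergenic genomic probes and negative controls received GST-tagged P. falciparum DNA-binding domains expressed in E. coli, about 25 μg on average, for 1 h. The binding buffer contained 1× PBS, 1% milk, 0.2 mg/ml BSA, 0.5% salmon testes DNA and 0.03% Triton X-100. Binding intensity is the top Masliner-normalised natural-log median intensity across replicate spots of either probe orientation, read after Alexa488 anti-GST antibody staining and a 488 nm scan.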
row,Sequence,gcPBM binding intensity (ln)
1,CAAAATATATATGACACACACAAAAAAAGTATATTA [CACACA_site1589],10.24 ± 0.042
2,AATTATATATAAAGAAGTACTATTTCAAGGAGTTTT [XGTACX_site3837],11.1 ± 0.61
3,CTAAACCTTTTGAGCACACATATATATATATATATA [CACACA_site1782],10.7 ± 0.88
4,TTCGCTGTTTTAATTAGTACTTATATATAATATTAT [XGTACX_site1149],11 ± 0.47
5,TATTGATATATATATATATATATATGTATATACTTA [GTGCAC_negctrl_site111],9.62 ± 0.12
6,TTTTTATATAAGAAAAAATTATAACAATTTGTTAAT [XGTACX_negctrl_site422],9.76 ± 0.24
7,TTTTTATTTTCATATGTGCACTTATATATATATATA,10.5 ± 0.34
8,TATTATAGTCCGACTTTTTAATTTCTTTATTGTTTT [CACACA_negctrl_site1381],10.8 ± 0.4
9,TGAATATTCATATGCACACAAATTAATATACATAAT [CACACA_site442],10.11 ± 0.071
10,TTTTATTTTTAAAATTGTACATTATTATTGTTATTT [XGTACX_site1439],10.8 ± 0.46
11,AAATTTTAATTAGACTGTACACATTTTAGAATAATT [XGTACX_site4819],11.6 ± 0.92
12,TTTTATGTTTTAAAATGTACGTGTCAATGAATAAGT [XGTACX_site6239],11.3 ± 0.91
13,ACCTTAATTATAATAACACACGAAAAGTGGACACAT [CACACA_site1750],11.3 ± 0.91
14,TATTTGTTCTGATCCTTTTATTCAACTTTTTTTTTT [CACACA_negctrl_site978],10.02 ± 0.035
15,GGCTAAAAGTTGCACACACACAAAAAAAAAAAAAAA [CACACA_site7531],10.4 ± 0.62
16,TTGTTCATTATGCACAGTACATAAAAAGTAAAAAAA [XGTACX_site2403],10.9 ± 0.56
17,TCATTTATTTTAAGGTGTACCGTTTAAAATCACAAA [XGTACX_site3243],11 ± 0.8
18,ATATTGACAAATATTACACACATATATATATATATA [CACACA_site4079],10 ± 0.2
19,TATTTTTATAAAAACTGTACATAATAAATAAAAATA [XGTACX_site4743],11.1 ± 0.62
20,AATCAAAGTAATTTAACACACAATTTTAATACTGTT [CACACA_site7169],9.69 ± 0.18
21,TTATATGTTTCTTCACGTACGTATAAAAATGAACTT [XGTACX_site1764],11.3 ± 0.72
22,TATCATGTGCGTGCGTGTACTTAACACACATAATAT [XGTACX_site2404],11.2 ± 0.95

row,Sequence,gcPBM binding intensity (ln)
1,AATTTACACGTACGTGTACACACAAAAATATGTTTT [CACACA_site8242],11.8 ± 1
2,CAGACATTAATAAGTAGTACACAATAATTGACTAGG [XGTACX_site854],11.6 ± 0.97
3,TTTTTTTGCGCGGGAAGAATAAAATTTATAGAATAT [TGCATGCA_negctrl_site306],10.4 ± 0.36
4,AATGTTTAATATAACGCATGCCTTAATATAGAATGC [TGCATGCA_site463],9.835 ± 0.021
5,AGTTTTATGTAGTGTTGTACTTTATACAAATATATA [XGTACX_site990],11.3 ± 0.79
6,AGTAATAATATAATTTGTACATATATATATTATAAA [XGTACX_site7138],10.9 ± 0.61
7,TACAAAAATGTAGTCACACATATGTATACTTTTATG [CACACA_site5607],10.3 ± 0.26
8,ATATATATAATTTAAAGTACATATTTAAGAATGAAA [XGTACX_site2238],11.1 ± 0.67
9,TTTCTAATTTATATCACACACATATATAAATAGTAA [CACACA_site6156],9.98 ± 0.21
10,ATACACAATTATTTTCCTATTATGCAAGCAAATTTA [CACACA_negctrl_site1176],10.01 ± 0.021
11,TGAAAAGATAAAAAATGTACATATATATTATATATA [XGTACX_site5678],11 ± 0.55
12,TTTCTAAATAATATACACAAAAAAATAAAACACTAA [TGCATGCA_negctrl_site43],10.1 ± 0.19
13,GTACAAAAAAAGTGTACACAAAGTAAGACTTTAATT [CACACA_site5068],11.7 ± 0.83
14,CACTGTAAATAGAAAGTGCAAAAATTGTAAATAAAA [GTGCAC_site9980],10.16 ± 0.099
15,TAAATACATTGACACACACACAAATATGTACATACA [CACACA_site7371],11.4 ± 0.78
16,ACTTGATTACACAACCACAAGTAATTGAAATTATTT [XGTACX_negctrl_site297],10.2 ± 0.18
17,GTTTAACTGTTTTATACACACAATGTAGACAATAAA [CACACA_site8967],10.2 ± 0.28
18,ATATATATAATATATTGTACATATAATATATATATA [XGTACX_site4792],10.9 ± 0.72
19,ATAAAAACTACATTCACACAAAAAAAAATCTACAAA [CACACA_site6109],9.99 ± 0.18
20,AATAATATTAATAAAAGTACATGTGTAATATATATA [XGTACX_site5922],11.4 ± 0.88
21,ATAAAGATAATATATGCACACATATAAATATATAAA [CACACA_site9153],9.98 ± 0.36
22,ATATATATATGTTAGGTGCATATATATTTTGTGGAT [GTGCAC_site9964],10.1 ± 0.35
